In all, about 340,000 compounds went through this assay and about 6,900 (2%) were called active. Rule as the data show it: active = inhibition above about 30%; inactive = below that, where a call was filed. Only a part is listed here, and it is no random draw. Entries without a call were filed so in the source.
Target: D(2) dopamine receptor (Homo sapiens) (UniProt P14416)
Experiment: HTS Assay for Allosteric Antagonists of the Human D2 Dopamine Receptor: Primary Screen for Antagonists; also: 0% is about no effect
Details: HEK293 TREx D2 cells, calcium flux, dopamine EC80; at 10 µM; stronger effect = higher value
Summary of the method: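 Compounds are added to dye-loaded, induced HEK293 T-REx cells coupled to calcium release via D2; after a 3 min kinetic read an EC80 dopamine stimulus is given and fluorescence is recorded for 3 more min.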

Chain of UniProt P14416 (P14416 whole entry, looked up): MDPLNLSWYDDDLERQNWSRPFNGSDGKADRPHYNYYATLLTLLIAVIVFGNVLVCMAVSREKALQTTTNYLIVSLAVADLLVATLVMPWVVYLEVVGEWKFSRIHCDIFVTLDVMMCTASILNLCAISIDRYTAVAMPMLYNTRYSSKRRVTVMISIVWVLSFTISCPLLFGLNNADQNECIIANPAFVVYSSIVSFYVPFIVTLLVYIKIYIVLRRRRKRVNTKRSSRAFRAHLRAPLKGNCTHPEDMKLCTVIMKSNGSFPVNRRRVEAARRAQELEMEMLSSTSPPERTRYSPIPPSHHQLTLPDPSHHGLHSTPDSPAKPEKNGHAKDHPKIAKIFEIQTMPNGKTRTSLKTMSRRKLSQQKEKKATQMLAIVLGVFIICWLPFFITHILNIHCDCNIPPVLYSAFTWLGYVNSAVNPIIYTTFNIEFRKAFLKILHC

Row | SMILES | inhibition
1 | COc1cccc(CNCCc2c[nH]c3ccccc23)c1 | active: 46.3%
2 | COc1ccc(C(=O)C2CCCN(C3CSCCSC3)C2)c(OC)c1 (centres undefined) | active: 57%
3 | Cc1ccc(-c2nc(CN3C(=O)CN=C(c4ccccc4Cl)c4cc(Cl)ccc43)c(C)o2)cc1 | 13.2%
4 | Cc1nn(CC(C)C)c(Cl)c1C(=O)NC1CCCCC1 | active: 30.2%
5 | O=C1CC(c2ccc(C(F)(F)F)cc2)c2c(c3ccccc3oc2=O)O1 (centres undefined) | 0.904%
6 | Cc1cccc(Cn2cccc(C(=O)Nc3nnc(C)s3)c2=O)c1 | 20%
7 | C[C@@H]1C[C@H]2OC(=O)C3(CO3)[C@H]2[C@H](O)[C@]2(C)C(=O)C3OC3[C@@H]12 (some centres undefined) | active: 41.1%
8 | COC(=O)c1ccccc1NC(=O)c1cccn(Cc2cccc(Cl)c2)c1=O | -0.834%
9 | OC1(c2ccc(F)cc2)CCNC1 (centres undefined) | active: 86.3%
10 | Clc1ccc(C(OCCN2CCCCC2)c2ccccc2)cc1 (centres undefined) | active: 42.7%
11 | COc1ccccc1OCC#CCN1CCCC(C)C1 (centres undefined) | active: 57.5%
12 | CC1CN(c2cc([N+](=O)[O-])ccc2Cl)CC(C)N1 (centres undefined) | active: 68.7%
13 | O=C(Nc1ccc2c(c1)OCO2)c1cccn(Cc2ccccc2)c1=O | 9.62%
14 | CN1CCc2c([nH]c3ccccc23)C1 | active: 51.4%
15 | O=C(Nc1ccc(F)c(Cl)c1)N(Cc1ccc2c(c1)OCO2)C1CCN(Cc2ccccc2)CC1 | -1.02%
16 | Nc1c(C(=O)Nc2ccc(F)c(Cl)c2)sc2nc3c(cc12)N1CCC3CC1 | -0.958%
17 | CN1CC(C(=O)c2ccc(F)cc2)C(c2ccc(F)cc2)C1 (centres undefined) | active: 99.9%
18 | C1=C(c2ccccc2)CCNC1 | active: 42.9%
19 | CCC1(c2cccc(O)c2)CCCCN(C)C1 (centres undefined) | active: 39.3%
20 | O=c1c2ccccc2nc(/C=C/c2cccc3ccccc23)n1-c1ccc(Cl)cc1 | -1.44%
21 | COc1cc(OC)cc(C(=O)Nc2ccc(Cl)cc2C(=O)c2ccccc2Cl)c1 | 7.49%
22 | CCC12CN3CC(CC)(CN(C1)C3c1c(C)[nH]c(=O)[nH]c1=O)C2=O (centres undefined) | -11.3%
23 | COc1cc2[nH]c(=O)n(-c3ccc(C)cc3)c(=O)c2cc1OC | -6.13%
24 | CCN(CC)C(=O)c1ccc(NC(=O)COc2ccc(-c3nn(C)c(=O)c4ccccc34)cc2)cc1 | -9.71%
25 | CCc1ccc(-n2nc(C)c3c2NC(=O)CSC3c2ccc(C(=O)OC)cc2)cc1 (centres undefined) | -5.74%
26 | COc1ccccc1-c1nn2c(=O)cc(CN3CCN(C(=O)COc4ccccc4Cl)CC3)nc2s1 | 5.05%

Row | SMILES | inhibition
27 | Cc1ccccc1-c1nc(CN2C(=O)CN=C(c3ccccc3)c3ccccc32)c(C)o1 | 14.2%
28 | O=C(Nc1ccc(Br)cc1C(=O)c1ccccc1Cl)c1ccc(Br)cc1 | -14.3%
29 | Cc1ccc(C2SCC(=O)Nc3c2c(=O)[nH]n3C2CCOC(C)(C)C2)cc1 (centres undefined) | active: 37%
30 | Cc1ccc2c(=O)n(-c3cccc(Cl)c3)c(=O)[nH]c2c1 | -3.07%
31 | Cc1ccc2nc(NC(=O)c3cccn(Cc4ccccc4F)c3=O)sc2c1 | -2.62%
32 | COc1ccc(CN2CCCC(C(=O)c3sccc3C)C2)cc1O (centres undefined) | active: 41%
33 | Cc1ccccc1-c1nn2c(=O)cc(CN3CCN(C(=O)COc4ccccc4Cl)CC3)nc2s1 | 8.17%
34 | Cc1ccc(-n2c(/C=C\c3ccc(F)c(F)c3)nc3ccccc3c2=O)c(C)c1 | 21%
35 | CN(CCc1nnc(N)s1)[N+](=O)[O-] | active: 47.6%
36 | CCN1CCN(c2ccc(NC(C)=O)cc2Cl)CC1 | active: 41.6%
37 | Oc1cc2c(cc1CN1CCN(c3ccccc3F)CC1)OCO2 | active: 76.4%
38 | Cc1cccc(OCC(=O)N2CCN(Cc3cc(=O)n4nc(-c5ccccc5Cl)sc4n3)CC2)c1 | -24.4%
39 | COc1ccc(CNCCc2c[nH]c3ccccc23)c(OC)c1C | active: 33.1%
40 | Cc1ccc(C(C)(C)C)c(OCC(=O)Nc2ccc(Cl)cc2C(=O)c2ccccc2)c1 | -1.76%
41 | c1cnc2c(c1)ncn2C1CCNCC1 | -5.18%
42 | COc1cccc(-n2c(/C=C\c3ccc(Cl)cc3)nc3ccccc3c2=O)c1 | -2.31%
43 | Cc1ccc(OCC(=O)N2CCN(Cc3ccc(F)cc3)CC2)cc1 | -14.4%
44 | COc1ccccc1N1CCN(Cc2cccc(Br)c2)CC1 | active: 75.8%
45 | O=C(COc1ccc(Br)cc1)Nc1ccc(Cl)cc1C(=O)c1ccccc1 | 5.18%
46 | CCOc1ccc2nc(NC(=O)c3cccn(Cc4ccc(Cl)cc4)c3=O)sc2c1 | 4.86%
47 | CN1C(=O)C(=Cc2cn(CC(=O)N3CCCC3)c3ccccc23)C(=O)N(C)C1=O | active: 30.2%
48 | O=C(Nc1ccc2c(c1)OCCO2)c1cccn(Cc2cccc(F)c2)c1=O | -12.2%
49 | CCc1ccccc1NC(=O)c1cccn(Cc2ccccc2F)c1=O | 27.7%
50 | CCOc1ccc2nc(NC(=O)c3cccn(Cc4ccccc4)c3=O)sc2c1 | 10.4%
51 | CSc1ccc(CN2CCN(C(=O)COc3ccc(C)cc3)CC2)cc1 | -10.9%
52 | CCCCC1(CN2CCCC2=O)C(=O)NC(=O)NC1=O | active: 44.6%

Row | SMILES | inhibition
53 | O=C(Nc1ccc(Cl)cc1C(=O)c1ccccc1)c1cc(Cl)cc(Cl)c1 | 6.29%
54 | COc1ccc(OC)c(NC(=O)Cn2cc(C(=O)c3ccccc3)c3ccccc32)c1 | 3.94%
55 | c1cc2n(c1)-c1c(ccc3c1OCO3)CNC2c1ccc2c(c1)OCO2 (centres undefined) | active: 51.1%
56 | Cc1ccc(CN2CCN(Cc3ccccc3F)CC2)cc1 | active: 38.9%
57 | COc1ccc(C)cc1NC(=O)c1cccn(Cc2cccc([N+](=O)[O-])c2)c1=O | 13.2%
58 | COCc1ccc(CN2CCCC(C(=O)c3sccc3C)C2)o1 (centres undefined) | active: 38.3%
59 | CCCC12CN3CC(CCC)(CN(C1)C3c1ccccn1)C2=O (centres undefined) | -1.23%
60 | COc1cccc(/C=C/c2nc3ccccc3c(=O)n2-c2ccc(Cl)cc2)c1OC | 11%
61 | Cc1nnc(NC(=O)c2cccn(Cc3cccc(Cl)c3)c2=O)s1 | 1.85%
62 | O=c1c2ccccc2nc(/C=C/c2ccccc2)n1-c1ccccc1F | -7.03%
63 | c1cncc(CNCCc2c[nH]c3ccccc23)c1 | active: 33%
64 | COc1cc(C(c2c(O)c3ccccc3oc2=O)c2c(C)n(C)n(-c3ccccc3)c2=O)ccc1O (centres undefined) | 3.4%
65 | Fc1ccccc1N1CCN(Cc2ccc3c(c2)OCO3)CC1 | active: 88.4%
66 | CN1CCN(c2oc(-c3ccc(COc4ccccc4)o3)nc2C#N)CC1 | -4.23%
67 | OCCN1C2CCC1CC(O)(c1ccc(F)cc1)C2 (centres undefined) | active: 48.2%
68 | CC1=CC(=O)C2=C(C)CC(O)C3C(C)C(=O)OC3C12 (centres undefined) | active: 35.2%
69 | Cc1[nH]c2ccccc2c1CCCNC1CCCCC1 | active: 38.8%
70 | Cc1ccsc1C(=O)C1CCCN(Cc2c(C)nn(C(C)C)c2C)C1 (centres undefined) | active: 57.5%
71 | NCCCN1CCN(c2ccccc2)CC1 | active: 95.3%
72 | Nc1c(C(=O)Nc2ccc(Cl)cc2)sc2nc3c(cc12)N1CCC3CC1 | 2.87%
73 | O=C(Nc1ccc2c(c1)OCO2)c1cccn(Cc2cccc(F)c2)c1=O | -4.91%
74 | Cn1cc(/C=C/c2nc3ccccc3c(=O)n2-c2ccccc2)c2ccccc21 | -5.39%
75 | CCN1CCN(Cc2cc(Br)ccc2O)CC1 | active: 63.9%
76 | Nc1c(C(=O)Nc2ccc(Br)cc2F)sc2nc3c(cc12)N1CCC3CC1 | -26.2%
77 | O=[N+]([O-])c1cccc(O)c1 | active: 36.1%
78 | Cc1c(Cl)cccc1NC(=O)CN1C(=O)C(C)N=C(c2ccccc2)c2ccccc21 (centres undefined) | -1.82%

Row | SMILES | inhibition
79 | O=C(Nc1ccc(Cl)cc1C(=O)c1ccccc1)c1ccccc1Br | 0.561%
80 | COc1cc(C(c2c(O)c3ccccc3oc2=O)c2c(C)n(C)n(-c3ccccc3)c2=O)ccc1OCC(=O)O (centres undefined) | -12.2%
81 | CCCC12CN3CC(C)(CN(C1)C3c1ccccn1)C2=O (centres undefined) | -4.54%
82 | O=C(COC(=O)Cc1ccccc1)Nc1nnc(-c2ccccc2)o1 | active: 30.6%
83 | Cc1ccc(-n2nc(C)c3c2NC(=O)CSC3c2ccc(O)cc2)cc1Cl (centres undefined) | 9.02%
84 | Cc1ncc([N+](=O)[O-])n1CCOC(N)=O | active: 38.2%
85 | O=c1c2ccccc2nc(/C=C/c2ccccc2O)n1-c1ccc(Br)cc1 | 3.67%
86 | Oc1cc2c(cc1O)[C@H]1c3ccccc3CN[C@@H]1CC2 | active: 92.2%
87 | CCCn1cc2c3c(cccc31)C1CC(C)CN(C)C1C2 (centres undefined) | active: 86.6%
88 | OC(CNC1CCCCC1)C(F)(F)F (centres undefined) | active: 39.7%
89 | CCOc1ccc(NC(=O)c2cccn(Cc3cccc(Cl)c3)c2=O)cc1 | 12.8%
90 | COc1cc2c(cc1O)[C@@H]1Cc3ccc(OC)c(O)c3CN1CC2 | active: 75.2%
91 | Fc1ccc2c(c1)nnn2C1CCN(Cc2ccccc2)CC1 | active: 81.8%
92 | COc1ccc(NC(=O)CCc2nc(C3=CCN(Cc4cccc(Cl)c4)CC3)no2)cc1OC | 3.75%
93 | COc1ccc(CNC(=O)CCC(=O)N2C[C@H]3C[C@H](C2)c2cccc(=O)n2C3)cc1OC | active: 36.4%
94 | N#Cc1cccc(NC(=O)c2sc3nc4c(cc3c2N)N2CCC4CC2)c1 | 6.42%
95 | Cc1oc(-c2ccccc2Cl)nc1CN1C(=O)CN=C(c2ccccc2)c2cc(Cl)ccc21 | 4.92%
96 | N#Cc1cc2c(nc1SCC(=O)Nc1ccc(F)c(Cl)c1)C1CCN2CC1 | 4.26%
97 | COC(=O)C1=C(c2cc3ccccc3s2)C[C@@H]2CC[C@H]1N2C | active: 58.2%
98 | CCCCCCN1CCN(c2ccccc2Cl)CC1 | active: 76.1%
99 | COc1ccc(CCNCc2ccc3c(c2)n(C)c(=O)n3C)cc1 | -12.4%
100 | O=C(Nc1ccc(Br)cc1C(=O)c1ccccc1Cl)c1ccccc1F | -10.9%
101 | O=C1CC(c2ccc(F)cc2)c2c(c3ccccc3oc2=O)O1 (centres undefined) | 10%
102 | CCCCCCNC(=O)N[C@H](Cc1ccc(O)cc1)C(=O)NCCC[C@H]1CN2C(=NC[C@H]2CCC)N1CC1CCC1 | active: 33.7%
103 | Cc1[nH]c2c(Cl)cccc2c1CCN | active: 40.6%
104 | C=CCn1c(O)c(C(CC)=NC2CC2)c(=O)[nH]c1=O | active: 39.3%

— PubChem BioAssay AID485344 (National Center for Advancing Translational Sciences (NCATS), 2010)
